The results in this text go back to article PMC6664820, “Novel natural and synthetic inhibitors of solute carriers SGLT1 and SGLT2” (Pharmacology Research & Perspectives, 2019).

Out of some 1,900 compounds screened, about 40 (2%) showed an effect of 50% or more. This is one part of the list.

Chain of human SGLT1 (hSGLT1) (P13866 whole entry, looked up): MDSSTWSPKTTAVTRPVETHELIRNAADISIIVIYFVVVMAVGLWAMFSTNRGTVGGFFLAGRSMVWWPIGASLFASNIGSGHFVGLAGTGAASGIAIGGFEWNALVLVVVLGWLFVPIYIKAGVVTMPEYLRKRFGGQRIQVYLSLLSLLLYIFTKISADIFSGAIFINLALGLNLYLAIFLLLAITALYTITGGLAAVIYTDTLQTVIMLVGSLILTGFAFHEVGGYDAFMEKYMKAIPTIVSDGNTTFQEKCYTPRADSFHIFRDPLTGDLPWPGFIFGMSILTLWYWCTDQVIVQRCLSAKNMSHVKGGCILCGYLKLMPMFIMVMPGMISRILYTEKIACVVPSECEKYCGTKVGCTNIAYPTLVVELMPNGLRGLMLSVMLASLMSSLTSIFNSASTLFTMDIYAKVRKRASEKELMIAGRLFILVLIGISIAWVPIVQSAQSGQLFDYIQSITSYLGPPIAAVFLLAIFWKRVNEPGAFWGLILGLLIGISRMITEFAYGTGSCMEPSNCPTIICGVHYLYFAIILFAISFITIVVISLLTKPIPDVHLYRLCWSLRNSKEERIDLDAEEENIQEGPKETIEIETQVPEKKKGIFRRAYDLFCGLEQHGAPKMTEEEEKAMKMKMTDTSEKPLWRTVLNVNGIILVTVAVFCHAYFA

The test addresses human SGLT1 (hSGLT1) (human, UniProt P13866). Put plainly: primary screen, percent of control activity; higher = less effect of the substance. Set-up: single well. The settings on record: 50 µM. The method in brief: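 Single-point screen at 50 µmol/L in CHO-hSGLT1 cells, with 160 µmol/L 1-NBD-glucose in glucose-free DMEM for 90 min at 37°C. Fluorescence from isopropanol extracts was calibrated, and CHO wild-type uptake was subtracted. Data are percent of uptake without compound.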
In the case of `CCCCCCCCNC(C)C(O)c1ccc(SC(C)C)cc1` (centres unmarked), the “NORMALIZED SGLT1 ACTIVITY (%)” value worked out at 71%.

Regarding `CC1(C)C[C@@H]2C(=O)CC[C@H]3O[C@]3(C)CC[C@H]21`, the “NORMALIZED SGLT1 ACTIVITY (%)” value turned out to be 99%.

As to `CC(C)[C@@H]1CC[C@@H](C)CC1=O`, the “NORMALIZED SGLT1 ACTIVITY (%)” value is listed as 106%.

In the case of `NC(Cc1c[nH]cn1)C(=O)Nc1ccc2ccccc2c1` (centres unmarked), the “NORMALIZED SGLT1 ACTIVITY (%)” value turned out to be 153%.

Turning to `CC(C)(C)NCC(O)c1cc(Cl)c(N)c(Cl)c1.Cl` (centres unmarked), the “NORMALIZED SGLT1 ACTIVITY (%)” value was found to be 125%.

Consider `O.O=P1(N(CCCl)CCCl)NCCCO1` (centres unmarked), for which the “NORMALIZED SGLT1 ACTIVITY (%)” value came to 175%.

Take `CN(C)c1ccc(C(=C2C=CC(=[N+](C)C)C=C2)c2ccc(N(C)C)cc2)cc1.[Cl-]`: the “NORMALIZED SGLT1 ACTIVITY (%)” value turned out to be 43%.

For `CCCC(=O)O[C@]1(C(=O)CO)CC[C@H]2[C@@H]3CCC4=CC(=O)CC[C@]4(C)[C@H]3[C@@H](O)C[C@@]21C`, the “NORMALIZED SGLT1 ACTIVITY (%)” value is 134%.

With `CC(C)=CCCC1(C)C=Cc2c(O)c3c(c(CC=C(C)C)c2O1)OC12C(CC4CC1C(C)(C)OC2(C/C=C(/C)C(=O)O)C4O)C3=O` (centres unmarked), the “NORMALIZED SGLT1 ACTIVITY (%)” value is 216%.

`COc1ccc2ccc(=O)oc2c1CC=C(C)C`: the “NORMALIZED SGLT1 ACTIVITY (%)” value came to 103%.

As for `O=c1[nH]c(=O)n([C@H]2C[C@H](O)[C@@H](CO)O2)cc1C(F)(F)F`, the “NORMALIZED SGLT1 ACTIVITY (%)” value stood at 115%.

With `Cc1nnc(SCC2=C(C(=O)[O-])N3C(=O)[C@@H](NC(=O)Cn4cnnn4)[C@H]3SC2)s1.[Na+]`, the “NORMALIZED SGLT1 ACTIVITY (%)” value amounted to 79%.

Regarding `O=c1[nH]c2ccccc2n1CCCN1CCC(n2c(=O)[nH]c3cc(Cl)ccc32)CC1`, the “NORMALIZED SGLT1 ACTIVITY (%)” value worked out at 196%.

On to `CC(=O)OCC(=O)[C@@]1(O)[C@H](OC(C)=O)C[C@H]2[C@@H]3CCC4=CC(=O)C=C[C@]4(C)[C@@]3(F)[C@@H](O)C[C@@]21C`, for which the “NORMALIZED SGLT1 ACTIVITY (%)” value came out at 107%.

In the case of `CO[C@H]1C[C@H](O[C@H]2[C@H](C)[C@@H](O[C@@H]3O[C@H](C)C[C@H](N(C)C)[C@H]3O)[C@@H](C)C[C@@]3(CO3)C(=O)[C@H](C)[C@@H](O)[C@@H](C)[C@@H](C)OC(=O)[C@@H]2C)O[C@@H](C)[C@@H]1O.O=P(O)(O)O`, the “NORMALIZED SGLT1 ACTIVITY (%)” value is 104%.

As to `CC1=CC(=O)CC(C)(C)C1(O)/C=C/C(C)=C\C(=O)O` (mixture of isomers), the “NORMALIZED SGLT1 ACTIVITY (%)” value is recorded as 104%.

As to `CC(C)C1=CC2=CCC3[C@](C)(CCC[C@]3(C)C(=O)O)C2CC1` (some centres unmarked), the “NORMALIZED SGLT1 ACTIVITY (%)” value is reported as 230%.

Consider `COc1cc(NS(=O)(=O)c2ccc(N)cc2)nc(OC)n1`, for which the “NORMALIZED SGLT1 ACTIVITY (%)” value is listed as 102%.

`CCOc1ccc(Cc2nccc3cc(OCC)c(OCC)cc23)cc1OCC.Cl`: the “NORMALIZED SGLT1 ACTIVITY (%)” value worked out at 107%.

On to `CC(C)=CCC/C(C)=C/CC/C(C)=C/CO`, for which the “NORMALIZED SGLT1 ACTIVITY (%)” value was 99%.

For the compound `Clc1ccc(Cl)cc1`, the “NORMALIZED SGLT1 ACTIVITY (%)” value is recorded as 115%.

For the compound `Cc1cc(=O)c2c(O)c(C)c(O)cc2o1`, the “NORMALIZED SGLT1 ACTIVITY (%)” value is listed as 210%.

With `CC(=O)N[C@@H]1[C@@H](C(O)[C@H](O)CO)O[C@](O)(C(=O)O)C[C@@H]1O` (some centres unmarked), the “NORMALIZED SGLT1 ACTIVITY (%)” value came out at 112%.

With `CCCC(C)C1(CC)C(=O)N=C(O)NC1=O` (centres unmarked), the “NORMALIZED SGLT1 ACTIVITY (%)” value was 161%.

For `COc1ccc2cc1Oc1ccc(cc1)C[C@H]1c3cc(c(OC)cc3CCN1C)Oc1c(OC)c(OC)cc3c1[C@H](C2)N(C)CC3`, the “NORMALIZED SGLT1 ACTIVITY (%)” value was found to be 165%.

For the compound `CC(=O)Nc1ccc(S(=O)(=O)Nc2ccc([N+](=O)[O-])cc2)cc1`, the “NORMALIZED SGLT1 ACTIVITY (%)” value turned out to be 131%.

For `C[C@]12CCC3c4ccc(OS(=O)(=O)[O-])cc4CCC3C1CC[C@H]2O.[Na+]` (some centres unmarked), the “NORMALIZED SGLT1 ACTIVITY (%)” value is 106%.

`Nc1ccc(C(=O)NCC(=O)O)cc1`: the “NORMALIZED SGLT1 ACTIVITY (%)” value was found to be 125%.

Consider `C[C@H](N)[C@H](O)c1ccccc1.Cl`, for which the “NORMALIZED SGLT1 ACTIVITY (%)” value stood at 131%.

Consider `COC(=O)C(N)CS.Cl` (centres unmarked), for which the “NORMALIZED SGLT1 ACTIVITY (%)” value turned out to be 118%.

`CCc1ccc2c(O)c3c(cc2c1C(=O)OC)C(=O)c1c(O)ccc(O)c1C3=O`: the “NORMALIZED SGLT1 ACTIVITY (%)” value is on record as 123%.

As for `CC(C)(Sc1cc(C(C)(C)C)c(O)c(C(C)(C)C)c1)Sc1cc(C(C)(C)C)c(O)c(C(C)(C)C)c1`, the “NORMALIZED SGLT1 ACTIVITY (%)” value is 104%.

Consider `CCC1(C2=NCCN2)Cc2ccccc2O1.Cl` (centres unmarked), for which the “NORMALIZED SGLT1 ACTIVITY (%)” value is 98%.

In the case of `CC(CCc1ccccc1)NCC(O)c1ccc(O)c(C(N)=O)c1.Cl` (centres unmarked), the “NORMALIZED SGLT1 ACTIVITY (%)” value was found to be 76%.

On to `CC(=O)Oc1cccc(C(=O)O)c1OC(C)=O`, for which the “NORMALIZED SGLT1 ACTIVITY (%)” value is 57%.

For `CC(C)=CC1C(CO)C1(C)C` (centres unmarked), the “NORMALIZED SGLT1 ACTIVITY (%)” value is listed as 93%.

On to `COc1cc2ccc(=O)oc2cc1O`, for which the “NORMALIZED SGLT1 ACTIVITY (%)” value is reported as 144%.

Consider `C[C@]12CCC(=O)C=C1C=C[C@@H]1[C@@H]2CC[C@@]2(C)[C@H]1CC[C@@]21CCC(=O)O1`, for which the “NORMALIZED SGLT1 ACTIVITY (%)” value turned out to be 93%.

Take `C/C=C/C(=O)N(CC)c1ccccc1C`: the “NORMALIZED SGLT1 ACTIVITY (%)” value was 80%.

On to `NC(=O)N1c2ccccc2CC(=O)c2ccccc21`, for which the “NORMALIZED SGLT1 ACTIVITY (%)” value is listed as 206%.

In the case of `Cc1ccc(C)c(OCCCC(C)(C)C(=O)O)c1`, the “NORMALIZED SGLT1 ACTIVITY (%)” value came out at 246%.

Turning to `CCCCOC(=O)c1ccccc1C(=O)OCCCC`, the “NORMALIZED SGLT1 ACTIVITY (%)” value worked out at 88%.

On to `Nc1nc2nc[nH]c2c(=S)[nH]1`, for which the “NORMALIZED SGLT1 ACTIVITY (%)” value worked out at 106%.

For the compound `CN(C)CCOC(C)(c1ccccc1)c1ccccn1.O=C(O)CCC(=O)O` (centres unmarked), the “NORMALIZED SGLT1 ACTIVITY (%)” value is listed as 85%.

For `COP(=S)(OC)SCn1nnc2ccccc2c1=O`, the “NORMALIZED SGLT1 ACTIVITY (%)” value is given as 123%.

With `O=C(CC[N+](=O)[O-])OC[C@H]1O[C@@H](O)[C@H](OC(=O)CC[N+](=O)[O-])[C@@H](OC(=O)CC[N+](=O)[O-])[C@@H]1OC(=O)CC[N+](=O)[O-]`, the “NORMALIZED SGLT1 ACTIVITY (%)” value was 143%.

With `COc1c(OC)c2occc2c2oc(=O)ccc12`, the “NORMALIZED SGLT1 ACTIVITY (%)” value came out at 229%.
